Experiment [1] has as its system Mango I (RNA, G4) GGCACGUACGAAGGGACGGUGCGGAGAGGAGAGUACGUGC
Kind of experiment: fluorescence titration with RNA. As to conditions: 140 mM KCl, 1 mM MgCl2; 10 mM NaH2PO4 pH 7.2, 0.05% Tween-20; 1.4 nM TO3-Biotin.

The test system of experiment [2] is Mango III (RNA, G4) GGCACGUACGAAGGAAGGAUUGGUAUGUGGUAUAUUCGUACGUGCC
Briefly: fluorescence titration with RNA. As to conditions: 140 mM KCl, 1 mM MgCl2; 10 mM NaH2PO4 pH 7.2, 0.05% Tween-20; 1.4 nM TO3-Biotin.

Experiment [3] deals with Mango II (RNA, G4) GGCACGUACGAAGGAGAGGAGAGGAAGAGGAGAGUACGUGC
Briefly: fluorescence titration with RNA. As to conditions: 140 mM KCl, 1 mM MgCl2; 10 mM NaH2PO4 pH 7.2, 0.05% Tween-20; 1.4 nM TO3-Biotin.

Experiment [4] relates to Mango IV (RNA, G4) GGCACGUACCGAGGGAGUGGUGAGGAUGAGGCGAGUACGUGC
Briefly: fluorescence titration with RNA. As to conditions: 140 mM KCl, 1 mM MgCl2; 10 mM NaH2PO4 pH 7.2, 0.05% Tween-20; 1.4 nM TO3-Biotin.

Experiment [5] concerns Mango I (RNA, G4) GGCACGUACGAAGGGACGGUGCGGAGAGGAGAGUACGUGC
Briefly: competition with TO1-B fluorescence. As to conditions: TO1-B displaced; in vitro transcription mixture.

Experiment [6] relates to Mango IV variant 20 (5' CGA of core replaced with GAA) (RNA, aptamer) GGCACGUACGAAGGGAGUGGUGAGGAUGAGGCGAGUACGUGC
Briefly: fluorescence titration with RNA. As to conditions: 140 mM KCl, 1 mM MgCl2; 10 mM NaH2PO4 pH 7.2, 0.05% Tween-20; four-fold weaker than Mango IV.

Experiment [7] deals with Mango III without 5' GAA (RNA, aptamer) GGCACGGGAAGGAUUGGUAUGUGGUAUAUUCCGUGCC
Kind of experiment: fluorescence titration with RNA. As to conditions: 140 mM KCl, 1 mM MgCl2; 10 mM NaH2PO4 pH 7.2, 0.05% Tween-20.

The subject of experiment [8] is Mango III without 3' UUC (RNA, aptamer) GGCACGGAAGGAAGGAUUGGUAUGUGGUAUACGUGCC
Kind of experiment: fluorescence titration with RNA. As to conditions: 140 mM KCl, 1 mM MgCl2; 10 mM NaH2PO4 pH 7.2, 0.05% Tween-20.

Usually KD stands for a measure of binding affinity in units of concentration. With `CN1C=CC(=C/C=C/c2sc3ccccc3[n+]2CC(=O)NCCOCCOCCOCCNC(=O)CCCC[C@@H]2SC[C@@H]3NC(=O)N[C@@H]32)c2ccccc21`, the KD in experiment [1] was 5.1 ± 0.3 nM; in experiment [2], 15.0 ± 1.3 nM; in experiment [3], 1.8 ± 0.1 nM; in experiment [4], 10.4 ± 0.1 nM.
Consider `CCc1c(C)c2cc3nc(cc4nc(cc5c(CC)c(C)c(cc1[nH]2)n5C)C(C)=C4CCC(=O)O)C(CCC(=O)O)=C3C`, for which the binding entry in experiment [5] is “yes”.
In experiment [6], `CN1C=CC(=Cc2sc3ccccc3[n+]2CC(=O)NCCOCCOCCOCCNC(=O)CCCC[C@@H]2SC[C@@H]3NC(=O)N[C@@H]32)c2ccccc21` returned a KD of 40 ± 2 nM. Further, the binding result in experiment [7] and in experiment [8] was “no” throughout.

The record behind these values is paper PMC5811451 (2018).
